# Results as given in PubChem BioAssay (NCATS).
# Inconclusive results, whose numbers are uncertain, are shown with a selection of clear calls. For part of these data: Potencies beside an inconclusive call are fits to weak or partial responses and may not hold up. Activity calls are given as the source filed them. Calls come from the whole dose curve; as a rule, active = well fitted curve in the direction sought with a large enough effect; inconclusive = small, poorly fitted or top-dose-only effect, or another doubt; inactive = no such curve, though single readings can be large; an effect the other way counts as inactive or inconclusive.
# Experiments:
# [1] = Vero cells viability qHTS for Zika virus inhibitors (AID 1347167); note: potency is the fitted concentration of half-maximal effect
# Outline: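 Counter-screen for cytotoxicity of hits from NS2B-NS3 protease qHTS. Overnight-attached cells (2.5 x 10^5 cells/mL, DMEM/4% FBS) were dosed in titration, incubated 24 to 48 hours, then assayed by CellTiter Glo.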
# [2] = target: Phospholipid hydroperoxide glutathione peroxidase GPX4 (Homo sapiens) (UniProt P36969); experiment: Primary qHTS Assay for Inhibitors of Recombinant Selenoprotein Glutathione Peroxidase 4 (GPX4) (AID 1845192); note: nearly all actives have a fitted effect of over 65% in size
# UniProt P36969, sequence (P36969 whole entry, looked up): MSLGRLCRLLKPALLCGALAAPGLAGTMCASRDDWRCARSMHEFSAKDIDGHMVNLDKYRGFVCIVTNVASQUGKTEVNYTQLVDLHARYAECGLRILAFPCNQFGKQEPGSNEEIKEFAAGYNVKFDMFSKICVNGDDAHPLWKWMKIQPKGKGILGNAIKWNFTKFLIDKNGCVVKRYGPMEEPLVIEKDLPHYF
# Outline: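 GR-coupled readout: 100 nM GR, 1 mM GSH, 0.5 mM NADPH; NADPH fluorescence (ex 340/em 450 nm) read at t=0 and after 15 min RT. GPX4 200 nM, preincubated 30 min with compound; substrate 0.5 mM CHP.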
# [3] = OV-KATE Cancer Cell Toxicity qHTS against the NCATS CANVASS Library (AID 1347345); note: potency is the fitted concentration of half-maximal effect
# Outline: (§1)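 In this cytotoxicity screen, 1000 cells per well rested 4 hours, then received compound (11 concentrations) for a 72-hour incubation; an ATP-dependent luminescent signal (CellTiter-Glo) was the endpoint.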
# [4] = U-118MG Cancer Cell Toxicity qHTS against the NCATS CANVASS Library (AID 1347351); note: potency is the fitted concentration of half-maximal effect
# Outline: as §1
# [5] = qHTS for Antimalaria activity screened against the NCATS CANVASS Library (AID 1347380); note: nearly all actives have a fitted effect of over 40% in size; note: potency is the fitted concentration of half-maximal effect
# Outline: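 P. falciparum Dd2-infected RBCs (2.5% hematocrit final, 0.3% parasitemia) in Albumax II RPMI were exposed to compounds in an 11-point qHTS series for 72 h at 37C under 5% O2/5% CO2, then lysed with SYBR Green.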
# [6] = qHTS for inhibitors of ER calcium dysfunction: SERCaMP assay screened against the NCATS CANVASS Library (AID 1347393); settings: SH-SY5Y GLuc-SERCaMP (Gaussia luciferase released on ER calcium loss) secretion, thapsigargin, luminescence; series mostly up to 76.6 µM; note: nearly all actives have a fitted effect of over 40% in size; note: potency is the fitted concentration of half-maximal effect
# Outline: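 qHTS in SH-SY5Y reporter cells: 16 h compound pretreatment, 4 h thapsigargin, then secreted Gaussia luciferase measured by luminescence.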
# [7] = Redox Reaction Profiling qHTS: Assay Interference Panel against the NCATS CANVASS Library (AID 1347401); note: potency is the fitted concentration of half-maximal effect
# Outline: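 Resazurin (5 uM) conversion to resorufin measured with 200 uM DTT in 50 mM HEPES pH 7.3, 50 mM NaCl. Compounds tested in 11-point qHTS series. Fluorescence (ex 525/em 598 nm) read before and after 15 min dark incubation.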
# [8] = UWB1.289 Cancer Cell Toxicity qHTS against the NCATS CANVASS Library (AID 1347347); note: potency is the fitted concentration of half-maximal effect; nearly all actives have a fitted effect of over 60% in size
# Outline: as §1
# [9] = Panc-1005 Cancer Cell Toxicity qHTS against the NCATS CANVASS Library (AID 1347349); note: potency is the fitted concentration of half-maximal effect; nearly all actives have a fitted effect of over 60% in size
# Outline: as §1
# [10] = COV-362 Cancer Cell Toxicity qHTS against the NCATS CANVASS Library (AID 1347352); note: potency is the fitted concentration of half-maximal effect
# Outline: (§2)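 Cells were seeded at 1000 per well and allowed to settle 4 hours at 37 degrees C before pin transfer of compounds as an 11-point series. Viability was read by CellTiter-Glo luminescence after 72 hours' exposure.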
# [11] = A2780 Cisplatin Sensitive Ovarian Cancer Cell Toxicity qHTS against the NCATS CANVASS Library (AID 1347353); note: potency is the fitted concentration of half-maximal effect; nearly all actives have a fitted effect of over 60% in size
# Outline: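 A2780 cisplatin-sensitive cells (750 per well) were seeded, left 4 h at 37 °C, then pin-dosed in an 11-point series. After 72 h at 37 °C/5% CO2, viability was measured as ATPLite luminescence.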
# [12] = UWB1.289-WTBRCA1 Cancer Cell Toxicity qHTS against the NCATS CANVASS Library (AID 1347354); note: potency is the fitted concentration of half-maximal effect
# Outline: as §2
# [13] = HPAF-II 12hr Apoptosis Induction qHTS against the NCATS CANVASS Library (AID 1347358); note: potency is the fitted concentration of half-maximal effect
# Outline: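 HPAF-II cells (500/well, DMEM + 10% FBS) were exposed to compounds for 12 hours at 37 degrees C. Caspase-3/7 activity was then read by Caspase-Glo 3/7 luminescence after 15 min at room temperature.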
# [14] = qHTS for Hypoxia signaling pathway (HIF-1) antagonists against the NCATS CANVASS Library (AID 1347374); note: potency is the fitted concentration of half-maximal effect; nearly all actives have a fitted effect of over 60% in size
# Outline: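 HRE-bla ME-180 cells (2,000/well, 0.5% dialyzed FBS) were pre-incubated 5 h, then given an 11-point compound series plus CoCl2 (60 uM solution as added) for 17 h at 37C. CCF4 β-lactamase read (ex 405, em 460/530 nm) after 2 h at RT.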
# [15] = qHTS for Hypoxia signaling pathway (HIF-1) agonists against the NCATS CANVASS Library (AID 1347375); note: potency is the fitted concentration of half-maximal effect
# Outline: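 HRE-bla ME-180 cells (beta-lactamase reporter under hypoxia responsive element) in 0.5% dialyzed FBS medium, 5 h at 37C, then compound 17 h, 11-point qHTS series. CCF4-AM FRET substrate 2 h RT; 460/530 nm emission read.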
# [16] = DH5-alpha competent E. coli microbial cell viability qHTS against the NCATS CANVASS Library (AID 1347377); settings: viability signal change, negative = cytotoxic: at 46.1 µM (top of the series); note: potency is the fitted concentration of half-maximal effect
# Outline: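 DH5-alpha E. coli suspension (0.9 OD culture diluted to 0.2 OD) exposed to compounds in an 11-point series, overnight at 37C, 5% CO2. Viability read as ATP by BacTiter-Glo luminescence after 20 min at room temperature.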
# [17] = qHTS for Activators of p53 Stress Response Pathway screened against the NCATS CANVASS Library (AID 1347388); note: potency is the fitted concentration of half-maximal effect
# Outline: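 p53RE-bla HCT-116 cells (4000/well) were plated 5 h at 37C, exposed to compounds for 16 h at 37C over an 11-point concentration series, then loaded with CCF4 for 2 h at room temperature; 460/530 nm emission ratio read.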
# [18] = qHTS assay for small molecule disruptors of mitochondrial membrane potential screened against the NCATS CANVASS Library (AID 1347389)
# Outline: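 HepG2 cells (2,000/well) were plated overnight at 37C, exposed to compound for 1 hr at 37C/5% CO2, then loaded with Mito-MPS dye for 30 min. Depolarization was read as a drop in red (590 nm) to green (535 nm) fluorescence ratio.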
# [19] = qHTS for activators of dead-cell proteases activity screened against the NCATS CANVASS Library (AID 1347392);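 note: luminescence from protease leaking out of membrane-damaged cells cleaving impermeant substrate; potency is the fitted concentration of half-maximal effect; rising signal means more cytotoxicity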
# Outline: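 HepG2 cells (2000/well) attached 18 h at 37C, then exposed 5 h to compounds (11-point qHTS). Dead-cell protease activity read as luminescence from cell-impermeant AAF-aminoluciferin substrate after 15 min at room temperature.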
# [20] = OV-SAHO Cancer Cell Toxicity qHTS against the NCATS CANVASS Library (AID 1347348); settings: OV-SAHO viability, CellTiter-Glo luminescence, 72 h; activity change, negative = cytotoxicity: at 38.3 µM (top of the series); note: potency is the fitted concentration of half-maximal effect; nearly all actives have a fitted effect of over 55% in size
# Outline: as §1
# [21] = SW1088 Cancer Cell Toxicity qHTS against the NCATS CANVASS Library (AID 1347350); note: potency is the fitted concentration of half-maximal effect; nearly all actives have a fitted effect of over 75% in size
# Outline: as §1
# [22] = HEK-293 Cancer Cell Toxicity qHTS against the NCATS CANVASS Library (AID 1347355); note: nearly all actives have a fitted effect of over 65% in size
# Outline: as §2
# [23] = system: NAD(P)H diaphorase (Clostridium kluyveri); experiment: Diaphorse counterscreen qHTS: Assay Interference Panel against the NCATS CANVASS Library (AID 1347362); note: potency is the fitted concentration of half-maximal effect
# Outline: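 Clostridium kluyveri diaphorase in PBS with 0.01% Tween-20 was preincubated 15 min at room temperature in the dark with compounds (11-point series). Resorufin fluorescence (ex 525/20, em 598/25) was read 5 min after adding resazurin/NADH.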
# [24] = SDT Cancer Cell Toxicity qHTS against the NCATS CANVASS Library (AID 1347365)
# Outline: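 SDT canine glioma cells (500 cells/well) were exposed to compounds in an 11-point series for 72 hr at 37C, 5% CO2; viability was read as ATP content by CellTiterGlo luminescence.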
# [25] = KB-3-1 Cancer Cell Toxicity qHTS against the NCATS CANVASS Library (AID 1347366); note: nearly all actives have a fitted effect of over 75% in size
# Outline: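 KB-3-1 cells (500/well) in DMEM with 10% FBS were exposed to compounds for 72 h at 37C. Viability was read by CellTiter-Glo luminescence.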
# [26] = G06 Cancer Cell Toxicity qHTS against the NCATS CANVASS Library (AID 1347368)
# Outline: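 G06 dog glioma cells seeded at 500 cells/well were exposed to compounds (11-point qHTS series) for 72 hr at 37C, 5% CO2; viability read as ATP content by CellTiterGlo luminescence.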
# [27] = MCF7 Cancer Cell Toxicity qHTS against the NCATS CANVASS Library (AID 1347369); settings: activity change, negative = cytotoxicity: at 46 µM (top of the series)
# Outline: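 MCF7 cells (500/well) were exposed 72 h at 37 °C to compounds in an 11-point series. Viability was read as ATP content by CellTiterGlo luminescence.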
# Tags give direction and shape of the fitted curve.
compound,measurement,setting,value
Oc1cc2ccccc2c2ccccc12,Potency,[1],active: 19 µM
Cc1nc2n(c(=O)c1CCN1CCC(c3noc4cc(F)ccc34)CC1)CCCC2O (stereo unspecified),Potency,[2],inactive
COc1cc(/C=C2/C(=O)N(c3ccc(O)cc3C(=O)O)[C@H](c3ccc(O)c(OC)c3)C2C(=O)Nc2ccc(O)cc2C(=O)O)ccc1O (stereo partly specified),Potency,[3],inactive
same,Potency,[4],inactive
same,Potency,[5],"inconclusive: 0.0027 µM [cytotoxic, full curve]"
same,Potency,[6],inactive
same,Potency,[7],"inconclusive: 12.1 µM [activator, partial curve]"
CCC(=O)N[C@@H](C[C@H](C)C(Cl)(Cl)Cl)C(=O)N1C(=O)C=C(OC)[C@@H]1C[C@H](C)CCl,Potency,[3],"inconclusive: 21.1 µM [cytotoxic, single point]"
same,Potency,[8],"inconclusive: 18.8 µM [cytotoxic, single point]"
same,Potency,[9],"inconclusive: 16.8 µM [cytotoxic, single point]"
same,Potency,[4],"inconclusive: 29.8 µM [cytotoxic, single point]"
same,Potency,[10],"inconclusive: 29.8 µM [cytotoxic, single point]"
same,Potency,[11],"inconclusive: 37.2 µM [cytotoxic, single point]"
same,Potency,[12],"inconclusive: 29.8 µM [cytotoxic, partial curve, poor fit]"
same,Potency,[13],"inconclusive: 33.2 µM [activator, partial curve, poor fit]"
same,Potency,[14],"inconclusive: 29.8 µM [inhibitor, single point]"
same,Potency,[15],"inconclusive: 23.6 µM [activator, single point]"
same,Potency,[16],"inconclusive: 26.3 µM [rising, partial curve, poor fit]"
same,Potency,[5],inactive
same,Potency,[17],"inconclusive: 23.4 µM [activator, single point]"
same,Potency,[18],"inconclusive: 37.1 µM [inhibitor, single point]"
same,Potency,[19],"inconclusive: 33.1 µM [activator, single point]"
same,Potency,[6],"inconclusive: 17.2 µM [inhibitor, partial curve, poor fit]"
CCCCCC[C@H](CCCCC[C@@H](O)C(N)=O)OC(=O)[C@@H]1CC=CN1C(=O)c1ccccc1O,Potency,[3],inactive
same,Potency,[20],"inconclusive: 26.5 µM [cytotoxic, single point]"
same,Potency,[21],"inconclusive: 29.8 µM [cytotoxic, single point]"
same,Potency,[11],"inconclusive: 33.2 µM [cytotoxic, single point]"
same,Potency,[12],"inconclusive: 18.8 µM [cytotoxic, single point]"
same,Potency,[22],inactive
same,Potency,[23],"inconclusive: 38.4 µM [inhibitor, partial curve, poor fit]"
same,Potency,[24],"inconclusive: 37.2 µM [cytotoxic, single point]"
same,Potency,[25],inactive
same,Potency,[26],"inconclusive: 16.6 µM [cytotoxic, partial curve]"
same,Potency,[27],inactive
same,Potency,[16],"inconclusive: 16.6 µM [rising, partial curve]"
same,Potency,[5],"inconclusive: 0.003 µM [cytotoxic, full curve]"
